# Measurements as given in the supplement of paper PMC3334620.
# Whole data set: some 33,000 sequences, median “E-score (-0.5 to 0.5)” near -0.017, cut for the highest 2% near 0.3. This is one part of the list.
# Target: T1, Sut1 (UniProt P53032)
# T1 sequence: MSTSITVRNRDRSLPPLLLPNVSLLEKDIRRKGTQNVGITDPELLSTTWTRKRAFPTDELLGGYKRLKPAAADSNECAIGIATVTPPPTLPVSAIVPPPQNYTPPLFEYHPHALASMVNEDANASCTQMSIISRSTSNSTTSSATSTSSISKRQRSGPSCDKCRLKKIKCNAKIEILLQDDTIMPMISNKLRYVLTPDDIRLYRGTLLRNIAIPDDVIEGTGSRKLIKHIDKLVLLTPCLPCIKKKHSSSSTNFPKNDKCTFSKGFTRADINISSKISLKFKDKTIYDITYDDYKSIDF
# Assay: PBM E-score (8-mer binding enrichment) (E-score (-0.5 to 0.5)); higher = stronger / more preferred TF binding; most listed sequences are background and not binding sites
# Details: protein concentration: 200 nM; construct: GST-full length
# In short: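 Universal all-10-mer Agilent arrays, double-stranded by primer extension on fresh or once-stripped slides, were probed with about 100-200 nM GST-tagged yeast transcription factors made by PURExpress. Fluorescent anti-GST detected bound protein, and masliner normalised the scans. E-scores from the Universal PBM Analysis Suite were given to each ungapped eight-base word pooled with its reverse complement.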
row,Sequence,PBM E-score
1,AAACGGAG,0.37
2,CTGTTATA,0.202
3,AAGCTATT,0.0716
4,ACGACGAG,-0.163
5,CAACGGGC,0.0172
6,CCGGAGCG,0.234
7,GCCAACGA,-0.0291
8,AAATTTAG,0.254
9,AACAAACA,0.256
10,CCTGCGTC,-0.184
11,GATGTTCA,-0.191
12,ACAAGTTG,-0.0358
13,GACGGTCC,-0.0948
14,CGCCTCCA,-0.0139
15,ATCACTGC,-0.0751
16,GTCTGTAA,0.0806
17,CCTCCCGA,-0.289
18,CTACCCGC,-0.124
19,TCACTGGA,0.0336
20,GAACGATC,0.00632
21,CATTCTGA,0.00217
22,GGATGGAC,-0.139
23,ACAGTTCA,-0.0491
24,CACCCTAA,-0.167
25,GCGCTCAA,0.102

row,Sequence,PBM E-score
1,ACCTACAA,0.0492
2,ATGGTAAG,-0.151
3,GAAATTCC,0.0935
4,CTCGACTC,0.0469
5,CCCATTGC,-0.113
6,GCGGACGC,-0.28
7,TATCAGGA,0.0818
8,ACAGGTAC,-0.0274
9,AACGCGCC,-0.0943
10,AAATAGTT,0.19
11,CAAACATC,0.127
12,GCAGGCAA,0.0353
13,CTATCTAA,0.0501
14,CGATGCAC,-0.151
15,CAACCGCG,0.149
16,AACAAGAT,0.106
17,AGTCCAGG,-0.147
18,AGGGTTAC,-0.28
19,CGGCCCCG,-0.0814
20,AAATCAAT,0.144
21,CTGAAAAA,0.0209
22,AGAACGGG,0.0594
23,ACACCGCC,-0.0681
24,ACAACGTA,-0.0745
25,CCTTATTC,-0.197

row,Sequence,PBM E-score
1,CACTCTAG,-0.0109
2,CCCGGAGG,0.0148
3,AGGGTTTC,-0.0383
4,CGGTTCCA,0.049
5,GCTGTCAC,-0.0802
6,GATCACAC,-0.0906
7,ACCCCGTC,-0.139
8,ACTTAGGC,-0.102
9,CTGCCAAC,-0.25
10,ACCACATG,-0.00856
11,CCGGAACA,0.304
12,GCTCTGAC,-0.202
13,GGCCCAAC,-0.0886
14,TAAATGAA,0.109
15,AAAGTCAA,0.157
16,ACGGCCAG,-0.0132
17,AGTTAAAC,0.2
18,AACCATGC,0.00747
19,AGAATGCA,0.0147
20,CGGCATGC,-0.0106
21,GTTAGCTA,-0.237
22,ATCAAATG,0.135
23,GCAGACAC,-0.0447
24,GTTAAGCA,0.0986
25,CCGGAATA,0.294

row,Sequence,PBM E-score
1,AGGTATAA,0.129
2,CGTCGTGC,0.00804
3,GCGGGGAC,-0.134
4,GTGGTTAA,0.0775
5,AATGTAAA,0.252
6,ACTAGGGG,-0.237
7,TGCCTACA,-0.15
8,GAGCACGA,0.107
9,CGCGCTAG,0.0253
10,ACTAATCG,0.182
11,GCCATACA,-0.0899
12,GATGATCA,-0.0348
13,AAGTGTCG,0.0186
14,CGTCGGTC,0.148
15,TACTTCCA,0.0469
16,ATCCACAC,-0.0894
17,CCCCTTGA,-0.0171
18,TAGGTTCA,-0.00817
19,GGCCGTAA,0.00876
20,ATAGGAGA,-0.366
21,AGCTAGAT,-0.0194
22,AATGCGGA,0.297
23,AGACGATA,0.156
24,GGGCTGTA,-0.182
25,TACCGGTA,0.0972

row,Sequence,PBM E-score
1,ATGAGAGA,0.101
2,ATGTGACC,0.057
3,AACCAAGT,0.0833
4,CTGAGTCA,-0.147
5,CCATATGG,-0.208
6,AAGCAGGA,0.00333
7,TCTGCCAA,-0.159
8,GGCCTTAA,-0.0238
9,CGACTGGA,-0.033
10,GGTCCCAA,-0.219
11,CATACCGA,-0.128
12,CCCCCAGC,-0.261
13,AGTCTGCC,-0.188
14,AACCGAAA,0.143
15,AAGACTTA,-0.0452
16,AGACCTGC,-0.305
17,AATCATCT,-0.104
18,CCTGGTCA,-0.307
19,CACGCATG,-0.18
20,AGATCGTG,-0.0866
21,AAGGCCCA,-0.0781
22,TTCTGCAA,-0.0309
23,ATACGCAT,0.0153
24,ATATGCTC,0.13
25,ACCTATCA,0.0988

row,Sequence,PBM E-score
1,CTATACGA,0.158
2,CACGGCGG,-0.13
3,AAGATAAG,0.0391
4,ACCTAGTA,-0.132
5,ATGAGTTA,0.0913
6,CACCTACG,-0.139
7,AGCTGCAT,-0.153
8,CGCGGGTA,-0.205
9,AACGACTG,-0.0246
10,TTCCAAAA,0.0792
11,ATACTAGA,0.136
12,AGTAGGAT,0.0781
13,AAATTTCC,0.167
14,GAGGAAGA,0.141
15,CAGCAAGG,-0.198
16,ACAAATGT,0.21
17,GTTCCATA,-0.117
18,CAGTGGCA,-0.208
19,CAGAATTA,-0.0304
20,AGGGATGA,0.029
21,ATGGCCCC,-0.273
22,GCGATACA,-0.0831
23,CGAAGTAA,0.132
24,ACATCTGA,-0.106
25,ATATCAAT,0.11

row,Sequence,PBM E-score
1,CCGCGCTA,-0.00771
2,CTAGATAA,0.149
3,AATTGCAT,0.151
4,ATCCTCTG,-0.125
5,ATACGGCA,0.0144
6,ACGTGTAT,-0.0421
7,AACACTAG,0.026
8,GGTTTAGA,0.0158
9,AAGATCCG,0.00271
10,ACTGTGCC,-0.0699
11,CTAACGAC,-0.0288
12,GGACAACC,0.0501
13,CGAGGCCC,-0.0796
14,CCCTGAGA,-0.392
15,CCAACGTA,-0.207
16,ATCCATGC,-0.139
17,TACGCAGA,0.0179
18,TGAAACAA,0.264
19,AACCTCCG,0.121
20,TAGTATAA,0.251
21,GCGTCCCA,-0.205
22,AAAGCCCT,-0.215
23,CGTAAGAC,-0.071
24,ATCTGGGG,-0.267
25,CCAGGACC,-0.137

row,Sequence,PBM E-score
1,GTGTACCA,-0.241
2,GATGTGGC,-0.247
3,CTCGCGTA,-0.134
4,TATATCGA,0.174
5,GAGCGGAC,0.0675
6,ATTCACTA,0.178
7,CAACGTGG,-0.0679
8,ACCATTAC,0.152
9,CCAACCCC,-0.0129
10,TGCACCCA,-0.164
11,CATTGTCA,-0.0301
12,GACTTCTC,0.102
13,CGAAAGCA,0.094
14,AGGTAGAC,-0.164
15,ATAGGGTC,-0.0641
16,GTATGGGA,-0.288
17,GGATCTCA,-0.0111
18,AATGCGGC,-0.119
19,CGTGATAC,-0.196
20,CCTCCCTC,-0.134
21,GCAACTCC,0.299
22,ATCAGATG,-0.0902
23,GAACCCAA,-0.162
24,ATTTGACG,0.137
25,GGTTACAC,-0.132

row,Sequence,PBM E-score
1,GAAATTGC,-0.0449
2,CCCGAGAC,0.0687
3,AAACCACG,-0.0101
4,GGGGGAAC,-0.255
5,CATATCGC,-0.0692
6,ACCTGCAC,-0.0264
7,GTAGGTCA,-0.0992
8,CGGTGGTA,-0.00793
9,GAGGCAGC,-0.245
10,GCCAATCA,-0.262
11,GACATCCA,-0.123
12,GAGTTGGA,0.188
13,ACAGAGAC,0.00598
14,AGGACTGA,-0.109
15,AGTCATTA,-0.0493
16,CGCTAAGC,-0.0886
17,ACACTCGC,0.00625
18,GCGACTTA,-0.106
19,ACACGCTA,-0.062
